In the supplement of paper PMC4604168 (melanoma cell lines):
Some of the results follow. Single values are uncertain, as repeats are few or missing.

What was measured:
Experiment in all cases: cell count relative to DMSO control; melanoma cells; higher = more viable cells
Conditions in all cases: library dose: low library concentration; 72 h
MZ2-MEL = test system: MZ2-MEL
MeWo = test system: MeWo
RPMI7951 = test system: RPMI7951
RVH-421 = test system: RVH-421
SkMel28 = test system: SkMel28
SkMel2 = test system: SkMel2
SkMel30 = test system: SkMel30
UACC62 = test system: UACC62
WM115 = test system: WM115
WM1716 = test system: WM1716
WM1745 = test system: WM1745
WM3526 = test system: WM3526
WM3619 = test system: WM3619
WM451Lu = test system: WM451Lu
SkMel5 = test system: SkMel5
UACC257 = test system: UACC257
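Note: cell number obtained by counting DAPI-stained nuclei in high-throughput microscope images with image analysis software, screen run in 1,536-well plates.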

| SMILES | cell count (MZ2-MEL) | cell count (MeWo) | cell count (RPMI7951) | cell count (RVH-421) | cell count (SkMel28) | cell count (SkMel2) | cell count (SkMel30) | cell count (UACC62) | cell count (WM115) | cell count (WM1716) | cell count (WM1745) | cell count (WM3526) | cell count (WM3619) | cell count (WM451Lu) | cell count (SkMel5) | cell count (UACC257) |
| --- | --- | --- | --- | --- | --- | --- | --- | --- | --- | --- | --- | --- | --- | --- | --- | --- |
| CCCCCCCCc1ccc(CCC(N)(CO)CO)cc1 [fingolimod] + C#Cc1cccc(Nc2ncnc3cc(OCCOC)c(OCCOC)cc23)c1 [erlotinib] (first compound 2 µM, partner dose 0.8 µM) | 105% | 77.3% | 67% | 99.1% | 94.9% | 99.6% | 70.3% | 74.5% | 108% | 75.8% | 71.4% | 99.9% | 80.1% | 94.4% |  |  |
| CCCCCCCCc1ccc(CCC(N)(CO)CO)cc1 [fingolimod] + CN1CCN(c2ccc3nc(-c4c(N)c5c(F)cccc5[nH]c4=O)[nH]c3c2)CC1 [Dovitinib] (first compound 2 µM, partner dose 0.1 µM) | 91.7% | 97.7% | 92.3% | 83.7% | 89.7% | 104% | 77.5% | 65.4% | 108% | 99.1% | 79.8% | 97.6% | 92.2% | 99.6% |  |  |
| CCCCCCCCc1ccc(CCC(N)(CO)CO)cc1 [fingolimod] + COc1ccc(Cl)c(Nc2nc3ccccc3nc2NS(=O)(=O)c2cccc(NC(=O)C(C)(C)N)c2)c1 [XL147] (first compound 2 µM, partner dose 0.8 µM) | 101% | 92.7% | 81.1% | 82.3% | 92.9% | 86.2% | 97.2% | 60.3% | 99.4% | 71.9% | 78.4% | 87.4% | 118% | 102% |  |  |
| COc1cc2c(Oc3ccc4[nH]c(C)cc4c3F)ncnc2cc1OCCCN1CCCC1 [cediranib] + Oc1cc(-c2nc(-c3ccccc3)[nH]c2-c2ccncc2)ccc1Cl [L779450] (first compound 0.4 µM, partner dose 0.2 µM) | 78.6% | 96.8% | 95.5% | 86.2% | 85.2% |  | 103% | 54.6% | 80.2% | 113% | 71.9% | 75.4% | 130% | 98.9% | 83.7% | 80% |
| CCCCCCCCc1ccc(CCC(N)(CO)CO)cc1 [fingolimod] + O=C(O)c1ccc2c(c1)nc(Nc1cccc(Cl)c1)c1ccncc12 [CX4945] (first compound 2 µM, partner dose 0.4 µM) | 94.7% | 94.6% | 74.6% | 93.7% | 120% | 83.7% | 91.2% | 91.2% | 91% | 94.3% | 82.1% | 94.1% | 78.3% | 86.3% |  |  |
| COc1cc2c(Oc3ccc4[nH]c(C)cc4c3F)ncnc2cc1OCCCN1CCCC1 [cediranib] + COc1cc2ncnc(Nc3ccc(Oc4ccccc4)cc3)c2cc1OC [SrcI1] (first compound 0.4 µM, partner dose 2 µM) | 94.2% | 98.3% | 94.4% | 102% | 99.2% |  | 105% | 94.2% | 94% | 97% | 87.6% | 88.5% | 77.4% | 128% | 86.4% | 94.2% |
| NC(=O)c1ccc(N(C(N)=O)c2c(F)cccc2F)nc1-c1ccc(F)cc1F + Nc1ncn([C@H]2C[C@H](O)[C@@H](CO)O2)c(=O)n1 [decitabine] (first compound 0.4 µM, partner dose 0.1 µM) | 102% | 87% | 100% | 88.2% | 86% | 104% | 119% | 89.4% | 91.6% | 89.5% | 84.6% | 99.9% | 77.8% | 103% |  |  |
| NC(=O)c1ccc(N(C(N)=O)c2c(F)cccc2F)nc1-c1ccc(F)cc1F + CCCCCCCCc1ccc(CCC(N)(CO)CO)cc1 [fingolimod] (first compound 0.4 µM, partner dose 2 µM) | 88.3% | 80% | 63.2% | 82.4% | 86.6% | 91.6% | 102% | 64.7% | 87.7% | 80.7% | 54.7% | 86.7% | 68.3% | 104% |  |  |
| NC(=O)c1ccc(N(C(N)=O)c2c(F)cccc2F)nc1-c1ccc(F)cc1F + CN1CCN(c2ccc3nc(-c4c(N)c5c(F)cccc5[nH]c4=O)[nH]c3c2)CC1 [Dovitinib] (first compound 0.4 µM, partner dose 0.1 µM) | 106% | 85% | 85.8% | 103% | 82.8% | 104% | 94.4% | 104% | 113% | 119% | 99.8% | 74% | 110% | 106% |  |  |
| NC(=O)c1ccc(N(C(N)=O)c2c(F)cccc2F)nc1-c1ccc(F)cc1F + CCN(CC)CCNC(=O)c1c(C)[nH]c(/C=C2\C(=O)Nc3ccc(F)cc32)c1C [sunitinib] (first compound 0.4 µM, partner dose 0.4 µM) | 105% | 84.2% | 122% | 95% | 99.6% | 123% | 104% | 103% | 108% | 120% | 80% | 94.8% | 97% | 113% |  |  |
| CCCCCCCCc1ccc(CCC(N)(CO)CO)cc1 [fingolimod] + Cn1c(=O)n(-c2ccc(C(C)(C)C#N)cc2)c2c3cc(-c4cnc5ccccc5c4)ccc3ncc21 [NVP-BEZ235] (first compound 2 µM, partner dose 0.004 µM) | 107% | 81.9% | 69.2% | 66.4% | 79.2% | 83.6% | 76.9% | 75.7% | 84% | 72.2% | 76.8% | 85.9% | 77.3% | 96.9% |  |  |
| NC(=O)c1ccc(N(C(N)=O)c2c(F)cccc2F)nc1-c1ccc(F)cc1F + C[C@]1(c2nc3c(C(N)=O)cccc3[nH]2)CCCN1 [Veliparib] (first compound 0.4 µM, partner dose 1.4 µM) | 96.3% | 81.5% | 71.7% | 94.6% | 72.9% | 87.3% | 96.2% | 76.9% | 80.7% | 95.5% | 90.7% | 88.1% | 97.4% | 110% |  |  |
| NC(=O)c1ccc(N(C(N)=O)c2c(F)cccc2F)nc1-c1ccc(F)cc1F + O=C(O)[C@@H]1[O][Sb](=[O])([O][Sb]2(=[O])[O][C@H]([C@H](O)CO)[C@H](O)[C@H](C(=O)O)[O]2)[O][C@H]([C@H](O)CO)[C@@H]1O [stibogluconate] (first compound 0.4 µM, partner dose 2 µM) | 99% | 101% | 91.9% | 95.8% | 115% | 88.6% | 89.5% | 93.1% | 98.8% | 90% | 92% | 106% | 98.2% | 111% |  |  |
| CCCCCCCCc1ccc(CCC(N)(CO)CO)cc1 [fingolimod] + Cc1nc(Nc2ncc(C(=O)Nc3c(C)cccc3Cl)s2)cc(N2CCN(CCO)CC2)n1 [dasatanib] (first compound 2 µM, partner dose 0.004 µM) | 85.7% | 82.7% | 61.1% | 84.8% | 98.6% | 94.3% | 98.1% | 76.2% | 74.9% | 68% | 75.1% | 74.6% | 85.4% | 104% |  |  |
| CC(C)(C)c1cnc(CSc2cnc(NC(=O)C3CCNCC3)s2)o1 + COC(=O)c1sccc1S(=O)(=O)Nc1ccc(Nc2ccccc2)cc1OC [GSK0660] (first compound 0.01 µM, partner dose 1 µM) | 96.7% | 103% | 105% | 99% | 91.4% |  | 95.8% | 79.9% | 109% | 100% | 96.7% | 98.5% | 101% | 118% | 87% | 89.6% |
| CCCCCCCCc1ccc(CCC(N)(CO)CO)cc1 [fingolimod] + NC1(c2ccc(-c3nc4ccn5c(=O)[nH]nc5c4cc3-c3ccccc3)cc2)CCC1 [MK2206] (first compound 2 µM, partner dose 0.4 µM) | 88% | 73.8% | 71.6% | 74.5% | 68.2% | 78.3% | 75.9% | 58.1% | 67% | 72.8% | 80.4% | 65.5% | 84.9% | 75.4% |  |  |
| CCCCCCCCc1ccc(CCC(N)(CO)CO)cc1 [fingolimod] + OCc1c[nH]c2ccccc12 [Indole-3-carbinol] (first compound 2 µM, partner dose 0.8 µM) | 104% | 94.8% | 87.7% | 64.2% | 105% | 90% | 89.3% | 87.3% | 90.1% | 80.6% | 61.8% | 77.6% | 48.2% | 95.7% |  |  |
| NC(=O)c1ccc(N(C(N)=O)c2c(F)cccc2F)nc1-c1ccc(F)cc1F + Cc1nc(Nc2ncc(C(=O)Nc3c(C)cccc3Cl)s2)cc(N2CCN(CCO)CC2)n1 [dasatanib] (first compound 0.4 µM, partner dose 0.004 µM) | 86% | 87% | 62.6% | 68.7% | 75.3% | 104% | 93.1% | 89.1% | 78.9% | 89.2% | 77.7% | 82.2% | 86.3% | 67.6% |  |  |
| NC(=O)c1ccc(N(C(N)=O)c2c(F)cccc2F)nc1-c1ccc(F)cc1F + CCCS(=O)(=O)Nc1ccc(F)c(C(=O)c2c[nH]c3ncc(Cl)cc23)c1F [PLX4720] (first compound 0.4 µM, partner dose 0.08 µM) | 90.4% | 85.9% | 99.6% | 78% | 102% | 97.6% | 99.1% | 67.1% | 93.5% | 119% | 83.6% | 80.1% | 85.7% | 96% |  |  |
| CCCCCCCCc1ccc(CCC(N)(CO)CO)cc1 [fingolimod] + COCC[n+]1c2c(n(Cc3cnccn3)c1C)C(=O)c1ccccc1C2=O [YM155] (first compound 2 µM, partner dose 0.0004 µM) | 74.6% | 95.1% | 77.6% | 84.3% | 83.3% | 94.3% | 77.8% | 81.1% | 94.6% | 75.1% | 89.2% | 81.5% | 87.3% | 78.1% |  |  |
| NC(=O)c1ccc(N(C(N)=O)c2c(F)cccc2F)nc1-c1ccc(F)cc1F + C[C@@H](Oc1cc(-c2cnn(C3CCNCC3)c2)cnc1N)c1c(Cl)ccc(F)c1Cl [Crizotinib] (first compound 0.4 µM, partner dose 0.2 µM) | 97.6% | 91% | 100% | 73.7% | 80.8% | 92.1% | 109% | 90.4% | 81.4% | 106% | 106% | 87.9% | 92% | 97.8% |  |  |
